Molecules are shown by their SMILES. Among all 43,000 compounds or so, about 200 (0.47%) were called active. Inconclusive results (about 12%) are left out. Calls come from the whole dose curve; as a rule, active = well fitted cell-killing curve with a large enough effect; inconclusive = small, poorly fitted or top-dose-only effect, or effect the other way; inactive = flat fitted curve, though single readings scatter. The list shows a part of the results.
% is set by controls: 0 for no effect and ±100 for the full control effect.

A short description of this experiment: Cell viability qHTS assay in S16 Pmp22-F2sN cells. Note: nearly all actives have a fitted effect of over 65% in size. Conditions: S16 Pmp22-F2sN Schwann cells (luciferase reporters placed in the Pmp22 gene) viability, CellTiter-Glo, 24 h; series mostly up to 57.5 µM; activity change, negative = cytotoxicity: at the top concentration. A digest of the protocol: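 Luminescence from CellTiter-Glo, read by CCD camera after a 15 min room-temperature incubation, served as the viability signal. Reporter Schwann cells (S16 Pmp22-F2sN) had been treated with pin-transferred compounds for 24 h at 37C.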
Background: Quantitative high-throughput screening tests each substance at several concentrations.
On to `Cn1cnc(S(=O)(=O)N2CCC(C(=O)NCc3ccccc3)CC2)c1`, for which the “activity change, negative = cytotoxicity” value was inactive: -0.51%. With `CC1=C(c2ccc(F)cc2)S(=O)(=O)N=C1N1CCC(C(=O)NCCc2ccco2)CC1` the figure was inactive: 4.22%.

With `CS(=O)(=O)N1CCc2cc(S(=O)(=O)NCc3ccccc3Cl)ccc21`, the “activity change, negative = cytotoxicity” value is inactive: -0.997%.

As to `COc1ccc2[nH]c(=O)c(CN(C(=O)c3cccc(Cl)c3)c3ccccc3OC)cc2c1`, the “activity change, negative = cytotoxicity” value was inactive: -9.61%. With `CC(=O)Nc1ccccc1OCc1cc(=O)n2c3c(sc2n1)CCCC3` the figure was inactive: 1.68%; with `Cn1c2ccccc2c2cnn(CC(=O)NCc3ccc(Cl)cc3)c(=O)c21`, inactive: 15.4%. With `Cc1ccc(Cn2nc(C)c(NC(=O)c3cc(-c4ccc(F)cc4)on3)c2C)cc1` the figure was inactive: 17.9%; with `Cc1ccc(NC(=O)Cn2c(C)cc(C)c(C#N)c2=O)cc1`, inactive: 15.1%; with `CCOc1ccc(NC(=O)Cn2c(=O)oc3cc(S(=O)(=O)NC4CCCC4)ccc32)cc1`, inactive: -10.8%. As for `CCOC(=O)c1c(S(=O)(=O)N2CCCC(C(=O)N(C)Cc3ccccc3)C2)c(C)n(C)c1C` (stereo not drawn), the “activity change, negative = cytotoxicity” value is inactive: 2.41%.

For the compound `COc1cc(NC(=O)Cn2ccn(Cc3ccccc3OC)c(=O)c2=O)cc(OC)c1`, the “activity change, negative = cytotoxicity” value is inactive: 5.65%. With `O=C(CN1CCN(Cc2ccc(F)cc2Cl)S1(=O)=O)Nc1ccc(F)cc1`, the “activity change, negative = cytotoxicity” value was inactive: -5.11%.

With `COc1ccccc1NC(=O)CSc1nc2ccccc2c(=O)n1CCC(=O)NC1CCCCC1`, the “activity change, negative = cytotoxicity” value was inactive: -7.83%. With `CCOc1ccc(NC(=O)CCCc2nc(-c3cccc(OC)c3)no2)cc1` the figure was inactive: 0.267%. Next, `O=C1CS(=O)(=O)C2(C(=O)Nc3ccccc32)N1c1cccc(Cl)c1` (stereo not drawn): inactive: 1.04%; `COc1cccc2c1cc1c(=O)n(CC(=O)N3CCN(c4ccccc4F)CC3)nc(C)n12`: inactive: -2.99%. With `Cc1ccc(CNC(=O)c2sc3nc(C)cc(C)c3c2-n2cccc2)cc1` the figure was inactive: 27.7%. For `COc1ccc(-c2cc3nc(N)cc(=O)n3[nH]2)cc1`, the “activity change, negative = cytotoxicity” value was inactive: 20.5%.

For `CCOC(=O)c1ccc(NC(=O)CSc2nc3ncc(Br)c(C)c3[nH]2)cc1`, the “activity change, negative = cytotoxicity” value was inactive: -11.9%. For `COCCCNC(=O)c1ccc(Cn2c(=O)c3ccccc3n(CC(N)=O)c2=O)cc1`, the “activity change, negative = cytotoxicity” value is inactive: -7.33%. With `Cc1cccc(C)c1OCc1cc(=O)n2c(-c3ccccc3)csc2n1` the figure was inactive: -5.1%; with `Cn1nc(-c2ccc(OCC(=O)Nc3cccc(C(F)(F)F)c3)cc2)c2ccccc2c1=O`, inactive: 24.9%; with `COc1ccc(NC(=O)c2cc(S(=O)(=O)N3CCOCC3)cn2C)cc1Cl`, inactive: -1.8%. Next, `O=C(NCCCc1nc2ccccc2n1Cc1ccc(F)cc1)C1CCCCC1`: inactive: 4.83%; `Cc1ccc(C)c(CSc2nc3c([nH]c4ccccc43)c(=O)n2C)c1`: inactive: 12.3%; `COCCNC(=O)CCn1c(=O)c2cc(OC)c(OC)cc2n(CC(=O)Nc2ccc(F)c(Cl)c2)c1=O`: inactive: -4.48%.

Take `CC(=O)N1CCc2c(sc3c2c(=O)n(-c2ccccc2)c(=O)n3CC(=O)c2ccc(Cl)cc2)C1`: the “activity change, negative = cytotoxicity” value was inactive: -1.9%.

On to `O=C(NCc1cccc(F)c1)C1CCN(c2nc3ccccc3nc2C(F)(F)F)CC1`, for which the “activity change, negative = cytotoxicity” value is inactive: -6.49%. Next, `CCc1ccccc1Nc1nn2c(=O)c3ccc(C(=O)NCc4ccc(C)cc4)cc3nc2s1`: inactive: -3.21%; `Cc1cc(C)c(NC(=O)Cn2c(=O)n(-c3cccc(C(F)(F)F)c3)c(=O)c3c(C)c(C)sc32)c(C)c1`: inactive: -5.92%. Next, `O=C(O)c1ccc(Nc2nc3ccccc3c3nncn23)cc1`: inactive: -19.2%; `COc1ccccc1NC(=O)C(Cc1ccccc1)NS(=O)(=O)c1ccc2c(c1)CCN2C(C)=O` (stereo not drawn): inactive: -6.36%; `CC(=O)N1CCOc2cc(S(=O)(=O)NCc3ccccc3Cl)c(C)cc21`: inactive: 12.3%.

With `Cc1cc2[nH]c(=O)c(=O)[nH]c2cc1S(=O)(=O)NCc1ccc(F)cc1`, the “activity change, negative = cytotoxicity” value was inactive: -0.766%.

On to `CCOCCCNC(=O)c1ccc2c(c1)NC(=O)C(CS(=O)(=O)Cc1ccc(F)cc1Cl)N2` (stereo not drawn), for which the “activity change, negative = cytotoxicity” value is inactive: 0.436%. Next, `Cc1cc(C)n(-c2nc3ccccc3nc2Nc2ccc(C(C)C)cc2)n1`: inactive: 2.19%; `O=C(NC1CCCCCC1)C1CCN(C(=O)N2CCOc3ccc(Cl)cc32)CC1`: inactive: -22.6%; `CCCCc1nn2c(=O)cc(COC(=O)c3cccc(NC(=O)COc4ccccc4)c3)nc2s1`: inactive: 1.26%. With `Cc1ccc(C2=NN(CC(=O)NCCCN(CC(C)C)CC(C)C)C(=O)CC2)cc1` the figure was inactive: 4.5%. Next, `O=C(Nc1ccc(Cl)cc1Cl)c1cc(S(=O)(=O)N2CCC3(CC2)OCCO3)ccc1F`: inactive: -0.924%.

As for `CCN(CCCNC(=O)CSc1cc(=O)n(C)c2ccccc12)c1ccccc1`, the “activity change, negative = cytotoxicity” value was inactive: 13.5%. For `CCOc1cccc(NC(=O)C2CC(=O)N(C)C(=Nc3cccc(OC)c3)S2)c1` (stereo not drawn), the “activity change, negative = cytotoxicity” value was inactive: 22.6%. With `Cc1cc(C)c(NC(=O)C(C)n2c(=O)cc(C)c3c(C)nn(-c4ccccc4)c32)c(C)c1` (stereo not drawn) the figure was inactive: 2.03%. With `COc1ccc(CNS(=O)(=O)c2cc3c(cc2C)N(C)CCO3)cc1` the figure was inactive: -5.64%; with `Cc1ccc(Cn2cc(C(=O)c3ccc(F)cc3)c(=O)c3cc4c(cc32)OCO4)cc1`, inactive: -0.697%. As to `CCOC(=O)Cn1c(=O)n(CC2CCCO2)c2nc(-c3ccccc3F)nc(C(N)=O)c21` (stereo not drawn), the “activity change, negative = cytotoxicity” value was inactive: 22.5%. In the case of `Cc1cccc(NC(=O)c2cc(S(=O)(=O)NCc3ccc4c(c3)OCO4)ccc2F)c1C`, the “activity change, negative = cytotoxicity” value was inactive: -0.294%. Next, `COC(=O)c1ccc(NC(=O)CCc2c(C)nc3c(-c4ccccc4)c(C)nn3c2C)cc1`: inactive: 0.236%.

The record behind these values is PubChem BioAssay AID1508642 (National Center for Advancing Translational Sciences (NCATS), 2021).
